Measurements published in paper PMC4336329 (PLoS ONE, 2015).
Out of some 310,000 compounds screened, about 2,200 (0.71%) showed an effect of 50% or more. Effects have a minus sign here. The list shows a part of the results. Where a SMILES comes first, the peptide text is derived from it. The star is where a group is joined. Cbz = O=C(OCc1ccccc1)*

target: human ether-à-go-go-related gene (hERG) potassium channel (human, UniProt Q12809); assay: primary screen, population patch clamp on CHO cells stably expressing hERG
Sequence (Q12809 whole entry, looked up): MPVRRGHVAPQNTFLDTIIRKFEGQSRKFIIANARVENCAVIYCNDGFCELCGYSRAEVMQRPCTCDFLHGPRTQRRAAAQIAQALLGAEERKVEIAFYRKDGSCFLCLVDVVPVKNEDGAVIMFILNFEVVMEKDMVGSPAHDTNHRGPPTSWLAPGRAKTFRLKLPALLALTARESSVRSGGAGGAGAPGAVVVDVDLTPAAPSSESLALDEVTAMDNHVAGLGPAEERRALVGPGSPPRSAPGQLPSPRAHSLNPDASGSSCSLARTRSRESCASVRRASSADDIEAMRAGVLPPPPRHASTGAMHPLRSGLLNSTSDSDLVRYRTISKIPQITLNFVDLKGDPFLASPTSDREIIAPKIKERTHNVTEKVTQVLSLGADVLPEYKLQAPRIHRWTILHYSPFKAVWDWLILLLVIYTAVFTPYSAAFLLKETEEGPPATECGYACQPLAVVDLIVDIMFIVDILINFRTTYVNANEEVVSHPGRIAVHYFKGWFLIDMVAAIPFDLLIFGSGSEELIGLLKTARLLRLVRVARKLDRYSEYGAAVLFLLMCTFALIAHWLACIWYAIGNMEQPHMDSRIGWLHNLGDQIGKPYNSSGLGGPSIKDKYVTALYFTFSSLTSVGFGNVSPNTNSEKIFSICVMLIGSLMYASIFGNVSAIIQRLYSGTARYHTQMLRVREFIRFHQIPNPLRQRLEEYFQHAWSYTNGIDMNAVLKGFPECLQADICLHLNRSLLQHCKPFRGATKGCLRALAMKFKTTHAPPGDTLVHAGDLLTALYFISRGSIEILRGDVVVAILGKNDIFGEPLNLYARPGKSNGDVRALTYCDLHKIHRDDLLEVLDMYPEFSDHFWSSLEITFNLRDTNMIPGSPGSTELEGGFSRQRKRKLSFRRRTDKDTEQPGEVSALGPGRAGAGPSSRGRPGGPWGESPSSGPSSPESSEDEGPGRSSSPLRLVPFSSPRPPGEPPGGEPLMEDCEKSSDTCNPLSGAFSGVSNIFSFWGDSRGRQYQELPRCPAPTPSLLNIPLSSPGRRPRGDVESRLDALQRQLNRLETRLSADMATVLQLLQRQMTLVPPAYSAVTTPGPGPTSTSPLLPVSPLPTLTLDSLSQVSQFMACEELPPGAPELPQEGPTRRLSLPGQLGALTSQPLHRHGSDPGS

Row | Structure (SMILES) | hERG current change (%, negative = inhibition) at 1uM
1 | COc1ccc2[nH]cc(S(=O)(=O)c3ccc(C)cc3)c2c1 | 4.68%
2 | CCOc1ccc(S(=O)(=O)N2CCN(C(=O)c3cc(-c4ccccc4)nn3-c3ccccc3)CC2)cc1 | 1.24%
3 | CCn1c(SCc2cccc(F)c2)nnc1-c1cccnc1 | 0.0692%
4 | O=C1C=C(c2ccc(O)cc2)C[C@@H](c2ccc(Cl)cc2)C1 | 20.6%
5 | COc1cn(-c2ccccc2)nc1C(=O)Nc1ccccc1 | 10%
6 | CC1=C(C#N)C2C(/C1=N/O)C2(C)C (stereo not drawn) | 17.1%
7 | COc1ccc(NC(=O)c2ccccc2S(=O)c2ccccc2C#N)cc1 (stereo not drawn) | 7.33%
8 | C=CCn1c(SCC(=O)Nc2ccc(F)cc2)nc2cc(C(=O)O)ccc2c1=O | 8.51%
9 | CC1=NN(C(N)=S)C(=O)C1N=Nc1cc(Cl)ccc1Cl (stereo not drawn) | 13.6%
10 | COc1cc(SC)ccc1C(=O)N1CCN(S(=O)(=O)/C=C/c2ccccc2)CC1 | -17.7%
11 | CN(C1(C)CCS(=O)(=O)C1)S(=O)(=O)c1ccc2ccccc2c1 (stereo not drawn) | 7.8%
12 | COc1ccc(C(=O)N2CCCC(C(=O)N3CCCCCC3)C2)cc1 (stereo not drawn) | 4.17%
13 | Cn1cnc2cc(NCc3cccs3)ccc21 | 2.33%
14 | C/C(=N\NC(=O)c1ccc(Br)o1)c1cc2c(cc1NC(=O)CCC(=O)O)OCO2 | 14.3%
15 | Cc1noc(C)c1COc1cccc(C(=O)OC(C)C(=O)Nc2c(C)n(C)n(-c3ccccc3)c2=O)c1 (stereo not drawn) | 10%
16 | O=C(Nc1nc(-c2ccccc2)nc2ccccc12)c1ccc(F)cc1 | 16.9%
17 | Cc1ccccc1OCCNC(=O)CNC(=O)c1ccccc1O | -30.6%
18 | O=C(O)c1ccc(-c2ccc(O)c(F)c2)cc1 | 10.9%
19 | CCn1c(-c2cc(-c3ccc(OC(C)C)cc3)nc3ccccc23)n[nH]c1=S | -2.73%
20 | Cc1nn(C)c(Cl)c1C(=O)NCC(=O)NCc1ccccc1 | 11.1%
21 | O=C(O)CCC(NC(=O)C1CCCN1C(=O)OCc1ccccc1)C(=O)O (stereo not drawn) (Cbz-Pro-Glu-OH; configuration not given here) | 11.1%
22 | Cc1ccc(-n2nnnc2SCC(=O)NNC(=O)c2ccco2)cc1C | 19.7%

Row | Structure (SMILES) | hERG current change (%, negative = inhibition) at 1uM
23 | N#CCC(=O)Nc1ccc(C(=O)OC(C(=O)Nc2cc(C(F)(F)F)ccc2Cl)c2ccccc2)cc1 (stereo not drawn) | 4.71%
24 | CCS(=O)(=O)Nc1cc(OC)c(OC)cc1Cc1nccc2cc(OC)c(OC)cc12 | -4.86%
25 | Cc1nc2ccc([N+](=O)[O-])cc2c(=O)n1Cc1cccc(Br)c1 | 6.43%
26 | CCOC(=O)C1(CC2CC2)CCN(C(=O)c2ocnc2C)CC1 | 18.4%
27 | COc1cc(S(=O)(=O)Nc2c(C)nn(C)c2C)ccc1NC(C)=O | 12.4%
28 | O=C1CCCC2=C1C(c1ccsc1)CC(=O)N2c1ccccc1 (stereo not drawn) | 4.09%
29 | CC(=O)Nc1cccc2c1C(=O)N(c1ccccc1C)C2=O | 15%
30 | O=C(Nc1ccc2[nH]ncc2c1)c1ccccc1Cl | 22%
31 | CCCC(=O)Nc1cc2c(cc1C(=O)c1ccccc1)OCCO2 | -1.17%
32 | Cc1nc2c(ccc3nc(NC(=O)Cc4cccc5ccccc45)sc32)s1 | 19.4%
33 | Cc1ccc(-c2nc3ccc(Cl)cc3n2OC(=O)N(C)C)cc1 | 12.7%
34 | O=C(CNCc1ccccn1)Nc1cc(C(F)(F)F)ccc1N1CCOCC1.O=C(O)C(=O)O | -13.3%
35 | COc1ccc(C(=O)COc2ccc(F)cc2)c(O)c1 | -9.28%
36 | Cc1ccc2nc(N3C(=O)C(O)=C(C(=O)c4ccc(C)o4)C3c3cccc(O)c3)sc2c1 (stereo not drawn) | 16.8%
37 | CC(=O)Nc1ccc2nc(NC(=O)c3ccco3)sc2c1 | 8.75%
38 | Cc1cccc(NC(=O)CSc2nnc(C)n2Cc2ccccc2)c1 | -6.2%
39 | CC(C)OCCCn1c(=NC(=O)c2cccs2)c(C#N)cc2c(=O)n3ccccc3nc21 | -67.1%
40 | CCOC(=O)c1cnc2nc(SC)nn2c1N | 10.7%
41 | Cc1ccc(NS(=O)(=O)c2ccc3c(c2)oc(=O)n3C)cc1 | 15.2%
42 | Cc1ccccc1N(C(=O)c1csnn1)C(C(=O)NC(C)(C)C)c1cccs1 (stereo not drawn) | 6.07%
43 | COc1ccc(CN(C)C(=O)c2oc3ccccc3c2CSC)cc1F | 18.3%
44 | O=[N+]([O-])c1ccc(Nc2ccc(F)cc2)nc1 | -11.3%

Row | Structure (SMILES) | hERG current change (%, negative = inhibition) at 1uM
45 | O=C(COCc1cc(-c2ccc3c(c2)OCO3)on1)N1CCN(c2cccc(C(F)(F)F)c2)CC1 | 18.5%
46 | O=c1[nH]ncc(N2CCN(Cc3ccccc3)CC2)c1Cl | 8.85%
47 | CC(/C=C/c1ccco1)=N/NC(=O)c1ccc(C)nc1 | 12.7%
48 | Cc1cc(C)c(S(=O)(=O)c2ccccc2)c(OC(=O)c2ccc(Cl)cc2Cl)n1 | 11.1%
49 | CCN(CC)S(=O)(=O)N1CCC(C(=O)NC2CCCc3ccccc32)CC1 (stereo not drawn) | 1.74%
50 | CCn1c(CNC(=O)COc2ccc(C(C)C)cc2)nnc1SCC(=O)Nc1cc(F)ccc1C | -23.6%
51 | O=C(Cn1c(-c2cscn2)nc2ccccc21)Nc1ccc(Cl)cc1 | 6.9%
52 | CN(CCOC(=O)c1ccccc1)Cc1ccccc1.Cl | 12.4%
53 | Cc1c(C(=N)C(C#N)C#N)c(=N)oc2c1ccc1ccccc12 | 5.12%
54 | Oc1c(C(c2cccs2)N2CCC3(CC2)OCCO3)sc2ncnn12 (stereo not drawn) | 14.6%
55 | Cc1cccc(NC(=O)CN2CCN(CC(=O)NCc3ccc(Cl)cc3Cl)CC2)c1C | 4.8%
56 | Cc1ccc(C(=O)O/N=C(\c2ccccc2)c2ccncc2)cc1 | 8.45%
57 | CCCCCNC(=O)C(=O)C1C(=O)Nc2ccccc21 (stereo not drawn) | 14.7%
58 | Cc1ccc(N(CC(O)Cn2c3ccccc3c3ccccc32)S(C)(=O)=O)c(C)c1 (stereo not drawn) | -4.23%
59 | COc1ncnc2c1oc1nc(C)c3c(c12)CC(C)(C)OC3 | 4.1%
60 | CCN(Cc1ccncc1)Cc1nc(CC2CC2)no1 | 14.3%
61 | COc1ccccc1OCC(=O)NNC(=O)CSC(=S)N1CCCC1 | 13.4%
62 | Cn1c(SCc2ccccc2)nnc1-c1ccco1 | 10.9%
63 | CCN(c1ccccc1)S(=O)(=O)c1cc(OC)ccc1OC | 1.48%
64 | COc1ccccc1/C=C/C(=O)NC(=S)N1CCN(C)CC1 | 8.3%
65 | O=C(Cc1ccccc1[N+](=O)[O-])Nc1ccccc1C(=O)N1CCOCC1 | 10.6%
66 | CCOc1ccc(CCN2C(=O)C3C4C=CC(C4)C3C2=O)cc1OCC (stereo not drawn) | 3.44%

Row | Structure (SMILES) | hERG current change (%, negative = inhibition) at 1uM
67 | O=C(C1=C[C@@H](c2ccc(Br)cc2)C[C@@H](OCCCCO)O1)N1CCN(Cc2ccc3c(c2)OCO3)CC1 | 1.85%
68 | Nc1cc(N)nc(SCC(=O)NCC2CCCO2)n1 (stereo not drawn) | -4.58%
69 | O=[N+]([O-])c1ccc(S(=O)(=O)c2cccc(C(F)(F)F)c2)nc1 | 7.76%
70 | O=C(CSc1ccc(-c2cccc([N+](=O)[O-])c2)nn1)N1CCCCCC1 | -2.31%
71 | COc1ccc(C)cc1NC(=O)c1ccc(NS(=O)(=O)c2cccc3cccnc23)cc1 | 13.5%
72 | Cc1ccc(C(=O)c2sc3nsc(C)c3c2N)cc1 | 12%
73 | COc1ccc(-c2csc(C3=C(O)CN(CCCN4CCCC4=O)C3=N)n2)cc1OC | 5.49%
74 | N#Cc1c(N)nc2c(c1-c1ccc3c(c1)OCO3)CCc1ccccc1-2 | 28.5%
75 | COc1ccccc1C1=CC(=O)C[C@H](c2ccc(Cl)cc2)C1 | -1.36%
76 | O=C(Nc1ccnn1C1CCN(C(=O)c2cccc(Cl)c2)CC1)C1CCOC1 (stereo not drawn) | 5.85%
77 | Cc1ccc(S(=O)(=O)N2CCOCC2)cc1NC(=O)COC(=O)c1cc(=O)c2ccccc2o1 | 11.3%
78 | COc1ccc(OCC(O)COc2ccc(OC)cc2)cc1 | 5.22%
79 | c1ccc(-n2nnc3cnccc32)cc1 | 7.25%
80 | O=C(CCc1ccccc1)NC(=S)Nc1cccc(Br)c1 | 16.2%
81 | Cc1cc(=O)oc2cc(NC(=S)NCc3cccnc3)ccc12 | 11.5%
82 | O=C(NC1CCCCC1)C(c1cccnc1)N(C(=O)CCl)c1cccc(Cl)c1 (stereo not drawn) | 5.06%
83 | COc1cc(/C=N/NC(=O)CCN2CCN(C(c3ccccc3)c3ccccc3)CC2)ccc1O | -4.58%
84 | COc1ccc(NC(=S)N(Cc2ccccn2)Cc2ccccc2Cl)cc1 | 5%
85 | O=C(O)C(=O)O.O=C(c1ccco1)N1CCN(Cc2cccc([N+](=O)[O-])c2)CC1 | 1.3%
86 | COc1ccc(NC(=O)CN(C)C(=O)c2c(-c3ccccc3Cl)noc2C)cc1 | 14.3%
87 | O=C(Nc1cccc(S(=O)(=O)N2CCCCC2)c1)c1cc([N+](=O)[O-])ccc1N1CCOCC1 | -40.5%
